In PMC12095048 (Oncogene, 2025):
Each block holds one binder with its values, some of them ahead of it.

Key:
[1] = target: His-CHK2 (WT), full length (UniProt O96017); experiment: pull-down
[2] = target: His-HIF-1α (WT), full length (UniProt Q16665 1-826); experiment: pull-down

binding result [1]: binds
B1: GST-HIF-1α ([…]) (domain or fragment)
chain: not shown

binding result [2]: binds
B2: GST-CHK2 ([…]) (domain or fragment)
chain: not shown
